# In all, about 33,000 sequences were measured (“E-score (-0.5 to 0.5)”: median about -0.013, highest 2% from about 0.3 on). The list shows a part of the results.
# Target: T1, Msn1 (UniProt P22148)
# T1 sequence: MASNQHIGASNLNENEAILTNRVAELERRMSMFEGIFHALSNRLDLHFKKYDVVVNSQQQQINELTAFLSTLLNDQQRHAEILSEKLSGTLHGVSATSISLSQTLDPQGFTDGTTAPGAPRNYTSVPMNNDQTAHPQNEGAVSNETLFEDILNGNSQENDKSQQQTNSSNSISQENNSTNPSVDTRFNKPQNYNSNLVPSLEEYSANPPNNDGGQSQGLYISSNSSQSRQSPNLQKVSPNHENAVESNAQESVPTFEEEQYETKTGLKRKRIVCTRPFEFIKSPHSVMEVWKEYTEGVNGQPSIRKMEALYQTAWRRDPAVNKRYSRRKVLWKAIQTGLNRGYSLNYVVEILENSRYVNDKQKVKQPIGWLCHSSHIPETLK
# Test: PBM E-score (8-mer binding enrichment) (E-score (-0.5 to 0.5)); higher = stronger / more preferred TF binding; most listed sequences are background and not binding sites
# Details: protein concentration: 200 nM; construct: GST-full length
# Procedure, shortened: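 Yeast transcription factors, full-length or as DNA-binding domains, were expressed with a GST tag using PURExpress in vitro transcription/translation. At about 100-200 nM they were applied to universal all-10-mer Agilent arrays, double-stranded by primer extension on fresh or once-stripped slides. Fluorescent anti-GST detected bound protein, and masliner normalised the scans. E-scores for ungapped eight-base words, pooled with reverse complements, came from the Universal PBM Analysis Suite.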
row,Sequence,PBM E-score
1,ACGACCCG,-0.0166
2,ACGGGGGA,-0.162
3,CATTATCG,0.0557
4,ATCGGTCA,0.0243
5,ACAAGGAT,0.108
6,GAATAATA,0.129
7,GACGGTTA,-0.198
8,CTGGTGAA,-0.201
9,ACGGAACC,0.162
10,CTACGTAC,0.135
11,ACAGATAC,0.256
12,GTACAGCA,-0.104
13,ATACACAT,0.0536
14,AGCCTAGG,-0.172
15,AATTCGGT,0.215
16,ACCTTAAA,-0.0187
17,AGGTTTTC,0.135
18,GGCATCAC,-0.121
19,GGTATCAC,-0.124
20,ACGATTGC,0.0068
21,ACTTAATC,0.0948
22,GTCACCTA,-0.0908
23,GTCAGTCA,0.141
24,CTGTATAC,0.153
25,GTCAAGAA,0.0556

row,Sequence,PBM E-score
1,ATTGTGAC,0.284
2,ATTTAAAA,0.13
3,GGGACCTA,0.0296
4,AGAGTCTA,-0.221
5,CGCACACG,-0.112
6,CCCAAGTA,-0.122
7,CCCGGCAC,-0.174
8,AATCAAGG,0.0406
9,CTAGCAGA,-0.0824
10,CTGAGGGA,-0.253
11,GCAGTTTA,-0.0109
12,GTACGCAA,-0.00186
13,TAGAAGCA,-0.229
14,AGGTGTTG,-0.148
15,TCATTCAA,0.207
16,GGAGTGAA,-0.189
17,GTGTCGGA,0.0876
18,AACCATAA,0.0654
19,ACCGCACC,-0.182
20,AGCACCGC,-0.193
21,AGCTGAAG,-0.09
22,CGAACCTC,-0.0905
23,AACGGTGC,-0.127
24,ACTGGGCC,-0.0731
25,CAATAATA,0.242

row,Sequence,PBM E-score
1,CCCAAACC,-0.0128
2,CAGCCTTA,-0.122
3,AAGTGGAA,-0.0507
4,GCGAGACA,0.102
5,CAATCATC,-0.0137
6,AGTTCTGG,0.0333
7,ACCATGCA,0.0412
8,CAATCATG,0.106
9,GATTCGCA,0.0379
10,ACCGCCAT,-0.157
11,AAGCCCAC,-0.203
12,CTTCGCCA,-0.294
13,GATTACCC,0.12
14,GATAGGCC,-0.125
15,CAAAATCG,0.216
16,ACGTCCCG,0.0295
17,CCTAAGGC,-0.164
18,GACCCGAA,0.12
19,CGGATCCC,-0.214
20,AGACTTGC,-0.136
21,ACGCGTCC,0.13
22,AGCATTTA,0.0227
23,CTGGCAGC,-0.271
24,CTGGCCGA,-0.289
25,ACAATGGC,0.121

row,Sequence,PBM E-score
1,GTACTGAA,0.275
2,CGAGATCC,0.135
3,ACAAGCTG,0.0701
4,AGGAGGTG,-0.306
5,ATCGAGAA,0.0941
6,CACCTAAA,-0.0468
7,AAGCAGTA,-0.139
8,GCGTAGCC,-0.311
9,CATGGTCA,0.117
10,CAAGCGCG,-0.0339
11,GGCTAATA,0.0752
12,AGAAAGGG,-0.149
13,CGCTTTGC,-0.0344
14,GTCTTCTA,0.11
15,CTAATTCC,0.209
16,AGTCACGG,0.0784
17,AGGCGCAT,-0.0528
18,CACACGCC,0.0586
19,ACCCATTC,-0.0687
20,GGGGGCCA,-0.416
21,ATTACTAA,0.116
22,ACATGCTG,0.139
23,ATACTATG,0.137
24,CATGATTC,-0.0643
25,GTCAGAAA,-0.0732

row,Sequence,PBM E-score
1,ACACAACC,0.1
2,AATAAAAC,0.189
3,GGCAAGTA,0.0176
4,ATAATGGA,0.155
5,CGTGCAGC,-0.0365
6,CGAAGTGC,0.0297
7,GTATTCCA,0.0881
8,TTACTAAA,0.199
9,CCTAGGCG,-0.158
10,CAACGTTA,0.201
11,GACGGGGC,-0.252
12,AATTCACA,-0.00444
13,AATAAGCG,-0.034
14,CCCGTAGC,-0.102
15,CTACACAC,-0.11
16,ACCCAGAG,-0.198
17,CCCGCCAG,-0.169
18,CTACGACA,0.311
19,CGTTAGGC,-0.246
20,CAAAAAGA,0.0247
21,AACCTACT,-0.114
22,CTCGGAGC,0.124
23,AAGGGTGC,-0.0869
24,TAGTCTCA,0.0523
25,ACCCCACA,-0.0822

row,Sequence,PBM E-score
1,CATTTCCG,0.288
2,GTCACTAA,0.128
3,ATTACCGC,0.132
4,TCAAGGGA,0.0607
5,AGGCGCGA,0.0737
6,GCTTCCCC,-0.325
7,ATCAACCC,0.00232
8,AGCTCCAA,0.041
9,GGCCTCGA,-0.0622
10,CCTGGCAA,-0.0698
11,CACCGACC,-0.197
12,ACTGCGAT,-0.0979
13,AGACCGCA,-0.0323
14,AATGTTAA,-0.0123
15,CAAGCAAG,-0.101
16,GGAGATCC,-0.129
17,TTGCAAAA,0.0627
18,AATGTCTA,0.454
19,CGGGGGGA,-0.396
20,GACCCGTC,-0.249
21,AACATATA,0.0881
22,AGGGCTGG,-0.174
23,CTAAGTTC,-0.124
24,CATTTGGA,0.209
25,AGAGTTCA,-0.125

row,Sequence,PBM E-score
1,AGTGCGTA,-0.168
2,ACCACGTA,-0.2
3,GAAGGATC,-0.238
4,CGAGGAAG,-0.175
5,CAATACCG,-0.113
6,CGTGAGCA,-0.23
7,GACAGTGC,0.00339
8,ACTTCTCA,0.0991
9,ATTTTACC,0.231
10,CGCTTCCA,-0.13
11,GTTTGGAA,0.0732
12,ATAGGCGG,0.123
13,GGACAGAC,0.375
14,CGCGACAC,0.118
15,CCTTTCAG,-0.0397
16,GGAGCGCA,-0.345
17,CAAGTTAC,0.064
18,CCTTATGA,0.0601
19,TCAGACCA,-0.0852
20,AGCTTGAA,-0.0497
21,GAACTAAA,0.131
22,ATCATCTG,0.0633

# — the supplement of paper PMC3334620
